The values below come from patent US4065570A (priority 1975, dated 1977).

Several values for one entry are separate records, joined by “and”; a condition that tells them apart may be missing. Equal values may be shown once. Read-outs that look alike come from different tables or passages of the source.

The subject of one assay is Polio I. Description: organism not typed. The settings on record: Vero. Type of assay: cell-based.

For “Acetylated 5-(3',4',5'-trimethoxybenzal) hydantoin [Example 23]”, the “% Inhibition” value in the assay with Coxsackie B3 (1 μg/ml) was 68% and 88%; with Coxsackie B3 (3.3 μg/ml) it was 88% and 100%; with Coxsackie B3 (6.7 μg/ml), 93% and 100%; in the assay on Coxsackie B3 (10 μg/ml) it was 97% and 100%; in the assay with Polio I (17.8 TCID50, 0.1 μg/ml) it was 21%; in the assay on Polio I (17.8 TCID50, 0.3 μg/ml) it was 32%. The “% Inhibition” value in the assay on Polio I (17.8 TCID50, 0.7 μg/ml) worked out at 42%; in the assay on Polio I (17.8 TCID50, 1 μg/ml), 56%; in the assay with Polio I (17.8 TCID50, 3.3 μg/ml), 60%; in the assay on Polio I (17.8 TCID50, 6.7 μg/ml) it was 95%; in the assay with Polio I (17.8 TCID50, 10 μg/ml), 100%.
As for “Acetylated 5-(3',4'-dimethoxybenzal) hydantoin”, the “% Inhibition” value in the assay with Coxsackie B3 (0.01 μg/ml) is 20%; in the assay with Coxsackie B3 (0.05 μg/ml), 50%; in the assay with Coxsackie B3 (0.1 μg/ml) it was 75%; in the assay with Coxsackie B3 (0.5 μg/ml), 95%; in the assay on Coxsackie B3 (1 μg/ml) it was 100%.
On to `COc1ccc(C=C2C(=O)N(C(C)=O)C(=O)N2C(C)=O)cc1OC` [Example 32, N,N-diacetylated 5-(3',4'-dimethoxybenzal) hydantoin], for which the inhibition at 1 µg/mL in the assay with Polio I (56.2 TCID50, 1 μg/ml) came to 86%. Besides, testing at 5 µg/mL with Polio I (56.2 TCID50, 5 μg/ml) gave an inhibition of 100%. This compound gave an inhibition at 10 µg/mL in the assay on Polio I (56.2 TCID50, 10 μg/ml) of 100%. In the assay with Polio I (56.2 TCID50, 50 μg/ml), this compound gave an inhibition at 50 µg/mL of 100%.
With “Acetylated 5-(3'-methoxy-4'-acetoxybenzal) hydantoin [Example 15]”, the “% Inhibition” value was determined as 4% in the assay with Coxsackie B3 (1 μg/ml); 60% in the assay on Coxsackie B3 (5 μg/ml); 80% in the assay on Coxsackie B3 (10 μg/ml); 7% in the assay with Polio I (56.2 TCID50, 0.1 μg/ml); 19% in the assay on Polio I (56.2 TCID50, 0.5 μg/ml); 12% with Polio I (56.2 TCID50, 1 μg/ml). Moreover, the “% Inhibition” value is 100% in the assay with Polio I (56.2 TCID50, 5 μg/ml) and 100% with Polio I (56.2 TCID50, 10 μg/ml).
As to “N-monoacetylated 5-(3',4'-dimethoxybenzal) hydantoin [Example 31]”, the “% Inhibition” value in the assay on Coxsackie B3 (1 μg/ml) and in the assay on Coxsackie B3 (5 μg/ml) was 0% in each case.
Take “Acetylated 5-benzalhydantoin [Example 16]”: the “% Inhibition” value is reported as 0% in the assay on Coxsackie B3 (1 μg/ml); 0% in the assay on Coxsackie B3 (5 μg/ml); 25% in the assay with Coxsackie B3 (10 μg/ml); 0% with Polio I (56.2 TCID50, 1 μg/ml); 0% in the assay with Polio I (56.2 TCID50, 5 μg/ml); 19% with Polio I (56.2 TCID50, 10 μg/ml).
With “Acetylated 5-(2',4',5'-trimethoxybenzal) hydantoin [Example 22]”, the “% Inhibition” value is 37% and 43% in the assay on Coxsackie B3 (0.07 μg/ml); 50% in the assay on Coxsackie B3 (0.1 μg/ml); 75% and 90% with Coxsackie B3 (0.3 μg/ml); 88% and 97% in the assay with Coxsackie B3 (0.7 μg/ml); 90% and 100% with Coxsackie B3 (1 μg/ml).
For the compound “Acetylated 5-(3',4',-Dimethoxybenzal) hydantoin [Example 14]”, the “% Inhibition” value in the assay on Coxsackie B3 (0.5 μg/ml) was found to be 88%; in the assay on Coxsackie B3 (1 μg/ml) it was 97%; in the assay on Coxsackie B3 (5 μg/ml), 100%; with Coxsackie B3 (10 μg/ml), 100%.
Consider “Acetylated 5-(3',5'-dimethoxybenzal) hydantoin [Example 21]”, for which the “% Inhibition” value in the assay on Coxsackie B3 (0.5 μg/ml) is 25% and 21%; with Coxsackie B3 (1 μg/ml), 50% and 44%; in the assay on Coxsackie B3 (5 μg/ml), 100% and 99%; with Coxsackie B3 (10 μg/ml), 100%.

The term % Inhibition denotes the relative decrease from the control value, in per cent. A lower % Inhibition goes with a weak effect. A word on the inhibition: it is the change of the read-out against control, counted positive when it falls. Low readings indicate a weak effect, high ones a strong effect.
